In the supplement of paper PMC3334620:
The full ranking holds about 33,000 sequences; the median of “E-score (-0.5 to 0.5)” is about -0.043, and the highest 2% start at about 0.37. Some of the results follow.

target: T1, Upc2 (UniProt Q12151); experiment: PBM E-score (8-mer binding enrichment) (E-score (-0.5 to 0.5)); higher = stronger / more preferred TF binding; most listed sequences are background and not binding sites; conditions: protein concentration: 200 nM; construct: GST-full length
T1 sequence: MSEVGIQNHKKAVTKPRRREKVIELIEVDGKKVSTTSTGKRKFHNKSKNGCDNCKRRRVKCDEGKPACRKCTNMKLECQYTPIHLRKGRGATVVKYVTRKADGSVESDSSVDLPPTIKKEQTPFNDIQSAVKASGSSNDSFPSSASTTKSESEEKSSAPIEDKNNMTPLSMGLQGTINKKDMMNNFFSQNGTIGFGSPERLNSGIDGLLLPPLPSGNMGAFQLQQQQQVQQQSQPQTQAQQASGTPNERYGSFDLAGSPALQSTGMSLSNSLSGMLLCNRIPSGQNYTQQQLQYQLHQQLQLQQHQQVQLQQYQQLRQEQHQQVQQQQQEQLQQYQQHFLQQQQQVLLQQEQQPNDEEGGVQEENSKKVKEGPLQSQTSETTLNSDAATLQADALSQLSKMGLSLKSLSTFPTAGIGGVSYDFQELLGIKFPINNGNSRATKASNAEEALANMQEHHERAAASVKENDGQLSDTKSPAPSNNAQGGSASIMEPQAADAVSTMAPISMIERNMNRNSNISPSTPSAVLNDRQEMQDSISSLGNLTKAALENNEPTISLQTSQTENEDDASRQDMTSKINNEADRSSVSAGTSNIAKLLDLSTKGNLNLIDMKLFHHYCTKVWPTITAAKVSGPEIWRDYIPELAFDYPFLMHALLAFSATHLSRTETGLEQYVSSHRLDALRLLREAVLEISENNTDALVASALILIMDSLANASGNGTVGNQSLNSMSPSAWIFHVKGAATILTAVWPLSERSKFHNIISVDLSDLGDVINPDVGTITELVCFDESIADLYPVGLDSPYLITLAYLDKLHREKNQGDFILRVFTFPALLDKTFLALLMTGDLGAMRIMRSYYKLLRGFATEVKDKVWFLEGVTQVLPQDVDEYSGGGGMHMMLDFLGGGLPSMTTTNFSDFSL
Method in brief: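 Each ungapped eight-base word and its reverse complement, pooled, received an E-score from the Universal PBM Analysis Suite. Underlying scans, normalised with masliner, recorded fluorescent anti-GST bound to GST-tagged yeast transcription factors. These were applied at about 100-200 nM to universal all-10-mer Agilent arrays double-stranded by primer extension.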

Row | Sequence | PBM E-score
1 | GCCTGTCC | 0.0313
2 | GATGCTGA | -0.111
3 | ACGGAAAG | -0.0107
4 | GACGCTAC | 0.0447
5 | GGCCGCGA | -0.141
6 | AGGAATTG | -0.0648
7 | ATCCCGGG | -0.0355
8 | CCGAGTAG | -0.0601
9 | CAGCTGAA | -0.137
10 | TCTTCACA | 0.0646
11 | CGCACAAC | 0.14
12 | ATCTCCGA | 0.0296
13 | ATGAAGCC | -0.0698
14 | GTGATATA | 0.036
15 | CACCTAGC | -0.217
16 | ACTGAGTC | 0.0333
17 | ACTGAGGC | -0.0402
18 | AATCTATC | -0.201
19 | AACTGGAT | -0.00533
20 | GCACGGGA | 0.0149
21 | GACCTTTA | -0.0186
22 | CTGCCCGC | -0.194
23 | CGGTTATA | 0.255
24 | GAAGCGTA | 0.223
25 | CCTTTCCA | -0.132

Row | Sequence | PBM E-score
26 | GCCTCTAA | -0.16
27 | CGATAACC | 0.188
28 | GGTCAGAC | -0.316
29 | ATCCATCA | -0.195
30 | CAGTGCCC | -0.166
31 | AATACTCC | -0.135
32 | CGTCGGGC | -0.231
33 | GAACTAAC | 0.085
34 | CTTATCCC | -0.0201
35 | CAGTCGAA | -0.102
36 | AAGTTATT | 0.045
37 | ACGCTAAA | 0.109
38 | GGCCATCA | -0.267
39 | ACCTTCAT | -0.0597
40 | GATCTGAA | -0.213
41 | GGCGAGAC | -0.0974
42 | ATTTTGTC | -0.0517
43 | CTGACTCA | -0.284
44 | CAGTACGC | 0.037
45 | CAATGTGG | -0.152
46 | ACTAGATA | 0.102
47 | ATAGTTTC | -0.0466
48 | ATAAAGTG | -0.00653
49 | CCTAGGAA | -0.186
50 | GATGTCTA | 0.125

Row | Sequence | PBM E-score
51 | AATGGAAT | -0.162
52 | CCTTTACG | 0.418
53 | CTGAAGCC | -0.0835
54 | GCTTTGGA | 0.0666
55 | AACATCGC | -0.158
56 | CAACTCCA | -0.291
57 | AATTGGAT | -0.0619
58 | AAACACGC | 0.0476
59 | CAAGTAGG | -0.143
60 | GACCTCTA | 0.104
61 | GACGATCA | -0.0322
62 | ACGTCGCG | 0.0842
63 | GTCATAAA | 0.0807
64 | AGAAATAT | 0.144
65 | CGTCGAGA | 0.067
66 | AATAACTA | 0.0341
67 | CGGAGTAA | 0.00492
68 | GACGTGGC | -0.245
69 | ATTAAAAT | -0.0575
70 | CTTATTCA | -0.114
71 | TAATAAGA | 0.0807
72 | CGGGACTC | -0.059
73 | ATCCCTGG | -0.298
74 | GCAATGAC | -0.234
75 | CGGTAGTC | -0.0623

Row | Sequence | PBM E-score
76 | TCCCACAA | -0.14
77 | CCATTAAG | -0.086
78 | AAAACATT | 0.0244
79 | AGCATCGA | 0.0299
80 | AACATCTT | 0.00211
81 | TGTGCGAA | 0.0333
82 | ATGCAAGA | -0.281
83 | GAAGTCTA | -0.107
84 | ACCAGGCG | -0.143
85 | AGGATAAT | 0.0766
86 | GTACTGCA | 0.0397
87 | ACTGCTCT | -0.199
88 | GTGTCAGA | -0.302
89 | GACCAATC | -0.117
90 | TCCCTGCA | -0.0721
91 | GACGTGCC | 0.00781
92 | AGGGGGTC | -0.281
93 | ATGGCCTA | -0.0709
94 | ATTAACGG | 0.185
95 | GTTGAGAA | -0.115
96 | CTACATCC | -0.108
97 | CATAAGTC | 0.0192
98 | CAGTACAC | 0.0965
99 | AATAGTGC | -0.124
100 | GGACGTCC | -0.116

Row | Sequence | PBM E-score
101 | CCCCAACC | -0.14
102 | CCCGGGAG | -0.218
103 | GATTTCGA | 0.0126
104 | CAGAACAG | -0.13
105 | AGAAAGAC | -0.154
106 | GAAATGCC | -0.0692
107 | AGGCCGTA | 0.355
108 | CGCATGCA | 0.0288
109 | AGCGGTGA | -0.0679
110 | ACTAAGAG | -0.00658
111 | AGTAATAA | -0.0853
112 | CCTGCTAA | -0.189
113 | GCGCACCA | 0.0742
114 | AGCCGTAA | 0.279
115 | TCTAAACA | 0.093
116 | GTATGTCA | 0.0928
117 | GAGCAGCC | 0.00738
118 | AGGTAGTA | 0.0448
119 | CAGCCCGA | -0.171
120 | ACGCAGCG | 0.0533
121 | ACTCTTCC | -0.1
122 | AACACTGG | -0.122
123 | CGATGGAA | 0.02
124 | ACAGCCAG | -0.0248
125 | ATTCATCA | -0.152

Row | Sequence | PBM E-score
126 | GAAGACCA | -0.105
127 | ATAAGAGC | 0.232
128 | GAGTAGAA | 0.0248
129 | ACGCGGCC | -0.0119
130 | CGGAAGGC | -0.343
131 | GAGGGCAA | 0.00341
132 | TACTGGCA | -0.0792
133 | CACCTAGA | -0.153
134 | TACTCGGA | 0.135
135 | AACCTACA | -0.0358
136 | AGGAACAC | 0.0909
137 | ATGCGACG | 0.306
138 | AGTCATTC | -0.146
139 | CTTACGAA | 0.399
140 | CTATGCAG | -0.252
141 | AAAATTGT | -0.0219
142 | AAGAGGAT | -0.184
143 | ACAAGATC | -0.143
144 | CTTCTCCA | -0.304
145 | CATATCGG | -0.217
146 | AGTTCCCA | 0.0941
147 | AGGGTCCG | -0.0147
148 | ACAGGTGA | -0.177
149 | CAGGACGC | -0.0928
150 | TGTGTCAA | -0.126

Row | Sequence | PBM E-score
151 | CAAATATA | -0.104
152 | CGCGATGC | 0.107
153 | GTCCTGGA | -0.286
154 | AAAATCGG | -0.0937
155 | ACCTGTAT | 0.112
156 | CCGCGTTC | 0.228
157 | GACGATGA | -0.00259
158 | CAGGGGGC | -0.183
159 | AGCGGTAG | 0.0244
160 | GCCCGCGA | -0.0163
161 | ATAGAAGC | -0.051
162 | CGTAGAAC | 0.219
163 | AACTCACC | -0.206
164 | ACAATCTC | -0.0376
165 | GAAAAATC | 0.107
166 | GACGTTTA | 0.366
167 | CTGTCTAC | -0.0534
168 | ACTGGCCG | -0.0772
169 | AGGATGTA | 0.117
170 | GCAACGGA | 0.129
171 | GTTTGAGA | 0.0947
172 | CAGTACCG | -0.103
